First the molecules themselves.
B1: CPEB3 Ribozyme (parent)
chain: UAACAGGGGGCCACAGCAGAAGCGUUCACGUCGCAGCCCCUGUCAGAUUCUGGUGAAUCUGCGAAUUCUGCUGUAUAUCUC

Read counts are not given, so values of variants with three or more changes are uncertain.

The variants in this data set derive from B1. In words: self-cleavage, relative activity (ratio to wild type); higher = more cleavage; in vitro, sequencing. The method, boiled down:
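Barcoded CPEB3 ribozyme mutants, produced by rounds of error-prone PCR, self-cleaved while being transcribed with T7 RNA polymerase for 5 hours at 37°C and during a subsequent 15 min DNase I step before EDTA was added. Sequencing of template-switched cDNA on Illumina gave cleaved and total reads, and DNA sequencing assigned barcodes to variants. Each variant's relative activity is its cleaved/total read fraction divided by the unmutated ribozyme's fraction, averaged across three batches. A variant needed a minimum of 5 reads.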
As for UAGCAGGGGGCCACAGCAGUAGCGUUCACGUCGCAGCCCCUAUCAGAUUCUGGUGAAUCCGCGAACUCAGCUGUAUAUCUC, the self-cleavage stood at 0.25.
To UAGCAGGGGGCCACAGCAGAUGCGUUCAGGUCGCAGCCCCGGUCAGAUUCAGGUGAAUCUGCGUAUUCUGCCGUAUAUCUC belongs 0.09; to UAGCAGGGGGCCACAGCAGAAGCGUUCGCGUCGCAGCCCCUGUCGGAUUCUGGUGAAUCUGCGAAUUCUGCUGUAUAUCUC, 0.76.
As for UAGCAGGGGGCCACAGCAGAAGCGUUCACGUCGCUGCCCCAGUCAGACUCUGGUGAAUCUGCGAAUUCUGCUGUAUAUCUC, the self-cleavage is 0.06.
The same measure for UAGCAGGGGGCCACAGCAGAAGCGUUCGCGUCGCAGCCCCAGUCAGAUUCUGGUAAAUCUGCGAGUCCUGCAGUAUAUCUC: 0.15; for UAGCAGGGGGCCACAGCAGAAGCGUUCACGUCGCGGCCCCUGUCAGAUUCUGGUGGAUCUGCGAAUUCUGCAGUAUAUCUC: 1.15; for UAGCAGGGGGCCACAGCAGAAGCGUUCUCGUCGCAGCCCCUGUCAGAUUCUGGUGAAUCUGCGAAUUCUGCUGUGUAUCUC: 0.83.
To UAGCAGGGGGCCACAGCAGAAGCGUUCUCGUCGCUGCCGCUGUCAGAUUCUGGUGAAUCUGCGAAUUCUGCUGUAUAUCUC belongs 0.11; to UAGCAGGGGGCCACAGCAGUAGCGUUCGCGUCGCAGCCCCUGUCAGAUUCUGGUGAAUCUGCGAAUUCUGCUGUAUAUCUC, 0.51; to UAGCAGGGGGCCACAGCAGAAGCGUUCACGUCGCUGCCCCUGUCAGAUUCUGGUGGAUCUGCGAAUUCUGCUGCAUAUCUC, 1.05.
To UAGCAGGGGGCCACAGCAGACGCGUACACGUCGCACCCCCCGUCGGAUUCUGGUGAAUCUGCGAAUUCUGCUGUAUAUCUC belongs 0.3.
With UAGCAGGGGGCCACAGCAGACGCGUUCACGUCGCAGCCCCUGGCAGAUUCUGGUGAAUCUGCGAAUUCUGCUGUAUAUCUC, the self-cleavage was found to be 0.52.
With UAGCAGGGGGCCACAGCAGGAGCGCUCACGCCGCAGCCCCUGUCAGAUUCUGGUGAAUCUGCGAAUUCUGCUGUAUAUCUC, the self-cleavage came out at 0.57.
As to UAGCAGGGGGCCACAGCAGAAGCGUUCACGUCGCGGCCCCUGUCAGGUUCUGGUGAAUCUGCUAAUUCUGCUGUAUUUCUC, the self-cleavage was found to be 1.26.
Turning to UAGCAGGGGGCCACAGCAGGAGCGAUCACGUCGCAGCCCCUGUCAGAUUCUGGUGAAUCAGCGAAUUCUGCUGUAUAUCUC, the self-cleavage was determined as 0.34.
As to UAGCAGGGGGCCACAGCAGAAGCGUUCACGUCGCGGCCCCUGUCAGAUCCUGGUGAAUCUGCGAAUUCUGCUGUAUAUCUC, the self-cleavage came to 0.92.
In the case of UAGCAGGGGGCCACAGCAGAAGCGUUCACGUCGCUGCCCCUGUCAGAUUCUGGUGCAUCUGCGAGUUCUGCUGAAUAUCUC, the self-cleavage was determined as 0.15.
To UAGCAGGGGGCCACAGCAGAAGCGUUCUCGUCGCAGCCCCUGUCAGAUUCUGGUGAAUCUGCGGAUUCUGCUGUAUAUCUC belongs 0.82.
The same measure for UAGCAGGGGGCCACAGCAGUAGCGUUCACGUAGCAGCCCCUGUCAGAUUCUGGUGAAUCUGCGAAUUCUGCUGUAUAUCUC: 0.18.
To UAGCAGGGGGCCACAGCAGAUGCGCUCACGUCGCAGCCCCUGUCAGAUUCUGGAGAAUCUGCGCAUUCUGCUGUAUAUCUC belongs 0.08; to UAGCAGGGGGCCACAGCAGAAGCGUUCGCGUCGCAGCCCCUGUCAGAUUCUGGUGAAUCAGCGCAUUCCGCUGUAUAUCCC, 0.18.
Turning to UAGCAGGGGGCCACAGCAGGAGCGUUCACGUCGCAGCCCCUGUCAGAUUCCGGAGAAUCUGCGAAUUCUGCUGUAUAUCUC, the self-cleavage came out at 0.83.
To UAGCAGGGGGCCACAGCAGGAGCGUUCACGUCGCAGCCCCUGUCAGAUUCUGGUGAAUCCGCGAAUUCUGCUGUACAUCUC belongs 0.55; to UAGCAGGGGGCCACAGCAGAAGCGUUCGCGUCGCAGCCCUUGUCAGAUUCUGGUGAAUCUGCGAGUUCUGCUGUAUAUCUC, 0.07; to UAGCAGGGGGCCACAGCAGGAGCGUUCACGUCGCAGCCCCUGGCAGGUUCUGGUGAAUCUGCGAAUUCUGCUGUAUAUCUC, 0.5.
Turning to UAGCAGGGGGCCACAGCAGGAGCGUUCACGCCGCAGCCCCUGUCAGAUUCUGGUGAAUCUGCGAAUUCUGCCGUAUAUCUC, the self-cleavage stood at 0.34.
The same measure for UAGCAGGGGGCCACAGCAGAGGCGUUCACGUCGCAGCCCCUGUCAGGUUCUGGUGAAUCUGCGAAUUCUGCCGUAUAUCUC: 0.6; for UAGCAGGGGGCCACAGCAGAGGCGCUCACGUCGCAGCCCCUGUCAGAUCCUGGUGAAUCUGCGAAUUCUGCUGUAUAUCUC: 0.21.
Consider UAGCAGGGGGCCACAGCAGAAGCGUUCACGUCGCGGCCCCUGUCAGAUUCUGGUGAAUCUGCGAAUUCUGCCGUAUAACUC, for which the self-cleavage was determined as 1.25.
As for UAGCAGGGGGCCACAGCAGGAGCGUUCACGUCGCAGCCCCCGUCAGAUUCUGGUGAAUCUGCGAAGUCUGCUGUGUAUCUC, the self-cleavage was 0.14.
The same measure for UAGCAGGGGGCCACAGCAGACGCGUUCACGUCGCAGCCCCUGGCAGACUCUGGUGAAUCAGCGAAUUCUGCUGUAUAUCCC: 0.05; for UAGCAGGGGGCCACAGCAGAUGCGAUUACGUCGCAGCCCCAGUCAGAUUCUGGUGAAUCUGCGAAUUCUGCUGUAUAUCUC: 0.22; for UAGCAGGGGGCCACAGCAGAAGCGUUCACGUCGCGGCCCAUGUCAGAUUCUGGUGAAUCUGCGAGUUCUGCUUUAUAUCUC: 0.44.
In the case of UAGCAGGGGGCCACAGCAGGAGCGUUCACGUCGCAGCCCCUGUCAGAUUCUGGUGAGUCCGCGAAUUCUGCUGUACAUCUC, the self-cleavage came out at 0.43.
For the variant UAGCAGGGGGCCACAGCAGUAGCGCUCACGUCGCAGCCCCUGUCAGAUUCUGGUGAAUUUGCGAAUUCUGCCGUAUAUCUC, the self-cleavage stood at 0.1.
To UAGCAGGGGGCCACAGCAGAAGCGUUCGCGUCGCAGCCCCUGUCAGAUUCUGGUGGAUCUGCGAAUUCUGCUGUAUAACUC belongs 0.83.
Turning to UAGCAGGGGGCCACAGCAGGAGCGUUCACGUCGCAGCCCCUGUCAGAUUCUGGUGAAUCUGCGAAUUCUGCUGUAUAUCAC, the self-cleavage amounted to 1.11.
To UAGCAGGGGGCCACAGCAGAAGCGUUCGCGUCGCUGCCCCCGUCAGAUUCUGGUGAAUCUGCGAAUUCUGCUGUAUAUCUC belongs 0.49.
As to UAGCAGGGGGCCACAGCAGAAGCGUUCACGUCGCGACCCCUGUCAGAUUCAGGUGAAUCUGCGAAUUCUGCUGUAUAUCUC, the self-cleavage turned out to be 1.18.
For the variant UAGCAGGGGGCCACAGCAGAAGCGUUCACGUCGCGGCCCCUGUCAGAUUCUGGUGAAUCCGCGAAUUCUGCUGUAUAUCUC, the self-cleavage came to 1.26.
Regarding UAGCAGGGGGCCACAGCAGAAGCGUUCGCGUCGCAGCCCCUGCCAGAUUCUGGUGAAUCUGCGAAUUCUGCUGUAUAUCUC, the self-cleavage was determined as 0.32.
For the variant UAGCAGGGGGCCACAGCAGAAGCGUUCGCGUCGCAGCCCCUGUCAGAUCCUGGUGAAUCUGCGAAUUCUGCUGUAUAUCUC, the self-cleavage was found to be 0.51.
To UAGCAGGGGGCCACAGCAGAAGCGUUCUCGUCGCAGCCCCUGUCAGAUUCUGGUGAAUCUGCGAAUCCUGCUGUAUAUCUC belongs 0.38.
With UAGCAGGGGGCCACAGCAGUAGCGUUCACGUCGCAGCCCCUGUCAGAAUCUGGUGAAUCUGCGAAUUCUGCUGUAUACCUC, the self-cleavage is 0.08.
To UAGCAGGGGGCCACAGCAGUAGCGUUCACGUCGCAGCCCCUGUCAGAUUCUGGUGAAUCUGCGAAUUCUGGUGUAUAUCUC belongs 0.22; to UAGCAGGGGGCCACAGCAGAAGCGUUCUCGCCGCAGCCCCUGUCAGAUUCUGGUGAAUCUGCGAAUUCUGCUGUAUAUCAC, 0.98; to UAGCAGGGGGCCACAGCAGAGGCGCUCACGUCGCAGCCCCUGUCAGAUUCAGGAGAAUCUGCGAAUUCUGCUGUAUAUCUC, 0.14.
The same measure for UAGCAGGGGGCCACAGCAGAAGCGUUCACGUCGCUGCCCCUGUCAGAUACUGGUGUAUCUGCGAAUUCAGCUGUAUACCUC: 0.17; for UAGCAGGGGGCCACAGCAGAGGCGUUCACGUCGCAGCCCCCGUCAGAUUCUGGUGAAUCUGCGAAUUCUGCUGUAUAUCUC: 0.52; for UAGCAGGGGGCCACAGCAGUAGCGUUCACGUCGCAGCCCCUGUCAGAUCCUGGUGAAUCUGCGAAUUCUGCAGUAUAUCUC: 0.35.
The same measure for UAGCAGGGGGCCACAGCAGAAGCGUUCACGUCGCGGCCCCUGACAGGUUCUGGUGAAUCUGCGAAUUCUGCUGUAUAUCUC: 1.2.
Consider UAGCAGGGGGCCACAGCAGAAGCGUUCGCGUCGCAGCCCCUGUCAGAUUCUGGUGAAUCUGCGAACUCUGCUGUGUAUCUC, for which the self-cleavage stood at 0.1.
With UAGCAGGGGGCCACAGCAGAAGCGUUCUCGUCGCAGCCCCUGCCAGAUUCUGGUGAAUCUGCGAAUUCUGCUGUAUAUCUC, the self-cleavage was found to be 0.42.
The same measure for UAGCAGGGGGCCACAGCAGAGGCGUUCACGUCGCAGCCCCUGUCAGAUUCUGGUGGAUCCGCGAAUUCUGCUGUAUAUCUC: 0.19.
To UAGCAGGGGGCCACAGCAGGAGCGUACACGUCGCUGCCCCUGUCAGAUUCUGGUGAAUCUGCGAAUUCUGCUGUAUACCUC belongs 0.21.
Consider UAGCAGGGGGCCACAGCAGAAGCGUUCGCGUCGCAGCCCCCGUCAGAUUCUGGUGAACCUGCGAAUUCUGCUGUACAUCUC, for which the self-cleavage was 0.25.
To UAGCAGGGGGCCACAGCAGAGGCGUUCACGCCGCAGCCCCUGUCAGAUCCCGGCAAAUCUGCGAAUUCUGCUGUAUAUCUC belongs 0.48; to UAGCAGGGGGCCACAGCAGAAGCGUUCCCGUCGCAGCCCCUGUCAGAUUCUGGUGGAUCUGCGAAUACUGCUGUAUAUCUC, 0.19; to UAGCAGGGGGCCACAGCAGAAGCGUUCACGUCGCGGCCCCUGUCAGAUUCUGGUGAAUCAGCGAAUUCUGCAGUAUAUCUC, 0.92.
Regarding UAGCAGGGGGCCACAGCAGAGGUGUUCACGUCGCGGCCCCUGUCUGAUUCUGGUGAAUCUGCGAAUUCUGCUGUAUAUCAC, the self-cleavage was determined as 0.17.
Regarding UAGCAGGGGGCCACAGCAGGAGCGCUCACGUCGCAGCCCCUGUCAGAUUCUGGUGAAUCUGCGGAUUCUGCUGUAUAUCUC, the self-cleavage came out at 0.08.
Consider UAGCAGGGGGCCACAGCAGGAGCGUACACGUCGCAGCCCCUGUCAGAUUCUGGUGAAUCUGCGAAUUCUGCUGUAUAUCUC, for which the self-cleavage came to 0.61.
To UAGCAGGGGGCCACAGCAGAAGCGUUCACGUCGCGGCCCCUGUCAGAUUCUGGUGAAUCGGCGGAUUCUGCUGUAUAUCUC belongs 0.86; to UAGCAGGGGGCCACAGCAGAGGCGUUCACGUCGCAGCCCCUGUCAGAUUCUGGUGAGUCUGCGAAUUCUGCUGUAUAUCUC, 0.55.
With UAGCAGGGGGCCACAGCAGAAGCGUUCACGUCGCUGCCCCUGUCAGAUUCUGGUGAAUCUGCGAAUUAUGCUGUAUAUCUU, the self-cleavage came to 0.27.
For UAGCAGGGGGCCACAGCAGAAGCGUUCGCGUCCCGGCCCCUGUCAGAUUCUGGUGAAUCUGCGAAUUCUGCUGUAUAUCUC, the self-cleavage was 0.39.
To UAGCAGGGGGCCACAGCAGGAGCGAUCACGUCGCAGCUCCUGUAAGAUUCUGGCGAAUCUGCGAAUUGUGCUGUAUAUCUC belongs 0.04; to UAGCAGGGGGCCACAGCAGAAGCGUUCUCGUCGCUGCCCCAGUCAGAUUUCGGUGAAUCUGCGAAUUCUGCUGUAUCUCUC, 0.07.

These data come from the RNAGym collection of RNA variant scans (doi:10.1093/nar/gkz1192).
